Source: PubChem BioAssay AID1631 (National Center for Advancing Translational Sciences (NCATS), 2009)
The campaign covered roughly 260,000 compounds. About 890 (0.34%) were called active. The shares of active, inactive and inconclusive entries below differ from those in the screen. Calls come from the whole dose curve; as a rule, active = well fitted activation curve with a large enough effect; inconclusive = small, poorly fitted or top-dose-only effect; inactive = no such curve, though single readings can be large or run the other way. A potency beside an inconclusive call is a rough fit, not a confirmed value.

target: Pyruvate kinase PKM (Homo sapiens) (UniProt P14618); assay: qHTS Assay for Activators of Human Muscle isoform 2 Pyruvate Kinase; conditions: purified PKM2, Kinase-Glo ATP luminescence; Potency: activation; activation: at 57.5 µM (top of the series), 0% is enzyme alone, no compound; note: nearly all actives have a fitted effect of over 55% in size
UniProt P14618, sequence (P14618 whole entry, looked up, canonical isoform): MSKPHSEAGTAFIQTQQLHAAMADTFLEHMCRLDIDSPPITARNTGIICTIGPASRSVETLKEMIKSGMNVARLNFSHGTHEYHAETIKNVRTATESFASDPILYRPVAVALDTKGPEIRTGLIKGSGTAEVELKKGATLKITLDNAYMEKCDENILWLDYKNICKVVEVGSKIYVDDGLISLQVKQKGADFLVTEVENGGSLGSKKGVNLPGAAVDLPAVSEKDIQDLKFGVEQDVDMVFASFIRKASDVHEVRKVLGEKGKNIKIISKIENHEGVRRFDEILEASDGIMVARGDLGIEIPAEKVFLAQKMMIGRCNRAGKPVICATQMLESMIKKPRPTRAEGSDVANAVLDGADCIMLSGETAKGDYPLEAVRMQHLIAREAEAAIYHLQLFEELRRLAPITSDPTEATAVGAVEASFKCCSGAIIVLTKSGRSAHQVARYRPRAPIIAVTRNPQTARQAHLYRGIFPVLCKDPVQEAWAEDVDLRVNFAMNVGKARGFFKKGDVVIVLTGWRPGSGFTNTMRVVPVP
Description: NIH Chemical Genomics Center [NCGC] Matthew G. Vander Heiden, M.D., Ph.D. [Harvard Medical School, 77 Avenue Louis Pasteur, Boston, MA 02115] MLPCN Grant: 1 R03 MH085679-01 NCGC Assay Overview: Human pyruvate kinase muscle 2 (hPK-M2) enzyme was supplied as a highly purified (>95% pure) preparation from Harvard Medical School and assayed for its ability to generate ATP from ADP using phosphoenolpyruvate (PEP) as a substrate. ATP generation was detected in a coupled reaction by luciferase-mediated luminescence, an ATP-dependent process. […] The enzyme was assayed at an intermediate level of activity to screen for both inhibitors and activators.
NCGC Assay Protocol Summary: Three uL of substrate mix (at r.t.) in assay buffer (50 mM Imidazole pH7.2, 50 mM KCl, 7 mM MgCl2, 0.01% Tween 20, 0.05% BSA) was dispensed into white solid bottom 1,536 well microtiter plates so that the final concentrations of substrates in the assay were 0.1 mM ADP and 0.5 mM PEP. 23 nL of compound were delivered by a pin tool and 1 uL of enzyme mix in assay buffer (4 degree Celsius) was added. Plates were incubated at room temperature for 1 hour. Two uL of detection mix (Kinase-Glo, Promega; at 4 degree Celsius protected from light) was added and luminescence read by a ViewLux (Perkin Elmer) at 5 second exposure/plate. Data were normalized to the uninhibited and AC100 inhibition (no enzyme). To monitor activation, the first column contained a titration of the activator, NCGC00031955-01 (16-point 1:2 dilutions in duplicate starting at 57 uM) and the first 16 rows of column 4 contained 57 uM of NCGC00031955-01.
% is set by controls: 0 for no effect and ±100 for the full control effect; potency is the fitted concentration of half-maximal effect; tags give direction and shape of the fitted curve.

Potency, inconclusive:
c1cncc(-c2nn3c(Cn4nnc5ccccc54)nnc3s2)c1 22.4 µM [rising, single point], Cc1cc(Br)ccc1OCCn1ccnc1 22.4 µM [rising, single point], COc1ccc(C)cc1S(=O)(=O)N1CCN(Cc2ccccc2)CC1 5.01 µM [rising, single point], Cc1ccc(S(=O)(=O)N2CCCC2C(=O)Nc2ccc(O)cc2)cc1 (stereo not given) 39.8 µM [rising, single point], Cc1cc(NC(=O)CSc2nnnn2C2CCCC2)no1 25.1 µM [rising, single point], O=C(CSc1nncc2ccccc12)Nc1cccc(O)c1 25.1 µM [rising, partial curve], C/C=C\C=C\C(=O)N1CC2(CC(c3cccc(NC(=O)CC(c4ccccc4)c4ccccc4)c3)=NO2)C[C@H]1C(N)=O (stereo not given in full) 14.1 µM [rising, partial curve], O=c1c(Cl)c(Cl)cnn1Cc1ccc(F)cc1 14.1 µM [rising, partial curve], CC1=C(NCCc2ccccc2)CCC1=O 14.1 µM [rising, partial curve], COc1ccc(CN2CCN(Cc3ccco3)CC2)cc1OC 39.8 µM [rising, single point], Cc1cc(-c2nc3ncccc3o2)ccc1NC(=O)CC(C)C 31.6 µM [rising, single point], CCOC(=O)Cc1csc(NC(=O)CSc2nc(-c3ccccc3)c(C#N)c(=O)[nH]2)n1 31.6 µM [rising, single point], CCCCn1c(=O)n(Cc2cccc(F)c2)c(=O)c2c1ncn2Cc1ccco1 22.4 µM [rising, single point]

Potency, active:
COc1ccc(N2C(=O)CC(Sc3nnc(-c4ccccc4)o3)C2=O)cc1 (stereo not given) 20 µM, O=C(c1ccc(Cn2cc(Br)cn2)cc1)N1CCN(c2ccccc2)CC1 4.47 µM, COc1ccc(S(=O)(=O)N2CCCN(S(=O)(=O)c3ccc(OC)cc3C)CC2)c(C)c1 8.91 µM

activation, inactive:
O=C(CN1CCCc2ccccc21)NC(=O)NC1CCCCC1 6.29%, Cc1cc(C)cc(NC(=O)c2cc(S(=O)(=O)NCc3ccco3)ccc2F)c1 -1.19%, Cc1cc(C)n(-c2nc3ccccc3nc2N2CCN(S(=O)(=O)c3ccc4ccccc4c3)CC2)n1 2.07%, CCn1c(CNC(=O)c2ccc(OC)cc2)nnc1SCC(=O)c1ccccc1 -20%
